Among the data in patent EP4603109A1 (Sichuan Kelun-Biotech Biopharmaceutical Co., Ltd., dated 2024) are EC50, binding result and Kd values, retold here.

Experiment [1] concerns the target T1, B7-H3 on human tumor cell lines (HT29, NCI-N87, HCC1806, HCC827, A375) (human, UniProt Q5ZPR3 29-534).
T1 construct: whole, on cells
T1 sequence (looked up): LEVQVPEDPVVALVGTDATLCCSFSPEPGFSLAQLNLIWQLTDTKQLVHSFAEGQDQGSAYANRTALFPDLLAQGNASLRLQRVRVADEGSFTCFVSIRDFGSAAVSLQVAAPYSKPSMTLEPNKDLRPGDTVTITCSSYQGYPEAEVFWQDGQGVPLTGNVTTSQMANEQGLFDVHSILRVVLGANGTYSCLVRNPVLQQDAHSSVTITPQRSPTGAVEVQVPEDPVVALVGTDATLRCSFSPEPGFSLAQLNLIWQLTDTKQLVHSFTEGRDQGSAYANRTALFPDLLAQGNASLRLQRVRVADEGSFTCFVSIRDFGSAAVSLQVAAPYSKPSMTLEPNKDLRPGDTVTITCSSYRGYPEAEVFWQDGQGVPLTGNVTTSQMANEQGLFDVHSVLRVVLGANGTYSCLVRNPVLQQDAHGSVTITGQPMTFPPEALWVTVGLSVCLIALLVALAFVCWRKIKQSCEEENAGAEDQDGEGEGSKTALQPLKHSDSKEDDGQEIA
The experiment is described as follows: flow cytometry on HCC1806 cells. (In general: Flow cytometry measures light scatter and fluorescence of single cells or particles in a stream.)

Experiment [2] has as its target T1, B7-H3 on human tumor cell lines (HT29, …). The experiment is described as follows: flow cytometry on NCI-N87 cells.
Another experiment has as its target T2, rat B7-H3 on CHO-S cells (rat, UniProt Q7TPB4 29-316).
T2 construct: whole, on cells; also called CHO-S-rat B7-H3; CHOS-rat B7-H3
T2 sequence (looked up): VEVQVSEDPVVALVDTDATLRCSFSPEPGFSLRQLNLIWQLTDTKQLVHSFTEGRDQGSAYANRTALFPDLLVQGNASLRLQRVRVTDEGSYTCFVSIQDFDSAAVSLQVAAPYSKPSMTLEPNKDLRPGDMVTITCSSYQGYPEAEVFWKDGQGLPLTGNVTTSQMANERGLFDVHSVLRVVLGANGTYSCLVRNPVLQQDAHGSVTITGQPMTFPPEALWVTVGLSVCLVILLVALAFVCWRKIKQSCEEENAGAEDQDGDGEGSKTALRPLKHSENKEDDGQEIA
Put plainly: flow cytometry on CHOS-rat B7-H3 cells.

Experiment [3] addresses T1, B7-H3 on human tumor cell lines (HT29, …). Put plainly: flow cytometry on HT29 cells (experiment 2).
Another experiment has as its target T3, human FcRn (human, UniProt P55899 partial chain, biotinylated (sites not given)).
T3 construct: Biotinylated protein captured on SA sensor
Put plainly: BLI (ForteBio), biotinylated FcRn on SA sensor, antibody from 5000 nM, 1:1 global fit.

The target of experiment [4] is T4, human B7-H3-2Ig-his protein (human, UniProt Q5ZPR3-2 29-245, limits assumed).
T4 construct: the 2Ig form is its isoform 2; not shown: His tag
T4 sequence (looked up): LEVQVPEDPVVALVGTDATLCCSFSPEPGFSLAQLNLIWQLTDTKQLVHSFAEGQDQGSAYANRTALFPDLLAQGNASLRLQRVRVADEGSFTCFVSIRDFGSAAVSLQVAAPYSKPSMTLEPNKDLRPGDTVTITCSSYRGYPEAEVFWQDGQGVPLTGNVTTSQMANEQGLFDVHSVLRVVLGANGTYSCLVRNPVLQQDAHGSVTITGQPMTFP
Put plainly: BLI (ForteBio), antibody on Protein A sensor, antigen 200-3.125 nM, 1:1 global fit (result 2). In general terms: BLI is a label-free optical method that tracks binding on a fibre tip over time.

A further experiment concerns the target monkey B7-H3-his protein (monkey). Described as above.
In experiment [5] the target is T5, human B7-H3-4Ig-his protein (human, UniProt Q5ZPR3 29-461, limits assumed).
T5 construct: not shown: His tag
T5 sequence (looked up): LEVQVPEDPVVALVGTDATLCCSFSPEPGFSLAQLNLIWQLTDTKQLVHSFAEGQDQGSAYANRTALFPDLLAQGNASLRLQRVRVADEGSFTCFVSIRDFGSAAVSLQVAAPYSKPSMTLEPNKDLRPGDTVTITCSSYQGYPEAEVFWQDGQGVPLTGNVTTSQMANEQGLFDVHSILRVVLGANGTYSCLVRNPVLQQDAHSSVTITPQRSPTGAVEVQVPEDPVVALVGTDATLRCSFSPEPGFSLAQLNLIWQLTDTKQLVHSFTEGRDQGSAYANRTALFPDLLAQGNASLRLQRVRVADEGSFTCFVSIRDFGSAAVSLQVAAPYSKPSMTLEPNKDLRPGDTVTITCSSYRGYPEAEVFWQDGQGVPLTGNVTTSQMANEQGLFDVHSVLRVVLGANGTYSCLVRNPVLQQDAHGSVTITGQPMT
The description is as above.

Sequence of human FcRn (P55899 24-297 limits assumed, form in doubt): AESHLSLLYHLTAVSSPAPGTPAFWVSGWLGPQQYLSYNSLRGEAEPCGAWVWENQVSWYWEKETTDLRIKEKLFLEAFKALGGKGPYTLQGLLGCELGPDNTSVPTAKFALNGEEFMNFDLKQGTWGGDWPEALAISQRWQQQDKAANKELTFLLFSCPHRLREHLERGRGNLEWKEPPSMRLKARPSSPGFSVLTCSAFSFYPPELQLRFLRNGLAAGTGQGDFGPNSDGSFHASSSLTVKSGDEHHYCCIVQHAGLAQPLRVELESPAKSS

B1: fully human anti-B7-H3 antibody 2#8890 (antibody, human IgG1, kappa)
heavy: QVQLQESGPGLVQPSGTLSLTCAVSGGSDSSTNWWTWVRQSPGQGLEWIGEISPIGFTSYSPSLRSRVTISVDKSKTQFSLKLSSVTAADTAVYYCARDRLYFAFWGQGTLVTVSSASTKGPSVFPLAPSSKSTSGGTAALGCLVKDYFPEPVTVSWNSGALTSGVHTFPAVLQSSGLYSLSSVVTVPSSSLGTQTYICNVNHKPSNTKVDKKV[human IgG1 Fc with L234A L235A G237A (EU numbers) left out here]
light: EIVMTQSPATLSVSPGERATLSCRASQSVSSNLAWYQQKPGQAPRLLIYGASTRATGIPDRFSGSGSGTEFTLTISSLESEDFAVYYCQQYNNWPITFGQGTRLEIKRTVAAPSVFIFPPSDEQLKSGTASVVCLLNNFYPREAKVQWKVDNALQSGNSQESVTEQDSKDSTYSLSSTLTLSKADYEKHKVYACEVTHQGLSSPVTKSFNRGEC
notes: expressed in CHO-S, Protein A purified
As to B1, the EC50 was 9.67 ng/mL in experiment [1], 5.77 ng/mL in experiment [2] and 11.4 ng/mL in experiment [3]. For the same molecule, the binding result with rat B7-H3 on CHO-S cells is reported as “no binding (tested: 10 ug/ml (highest concentration))”. For the same molecule, the Kd amounted to 17.3 nM with human FcRn, 39.8 nM in experiment [4], 2.23 nM with monkey B7-H3-his protein and 1.14 nM in experiment [5].

A word on the EC50: it is the midpoint of the concentration-response curve. For orientation: Kd means the constant that tells how readily two partners part at equilibrium.
